According to PubChem BioAssay AID686979 (National Center for Advancing Translational Sciences (NCATS), 2013):
“And” between values parts separate entries of the source, which are not always exact repeats. Identical values can stand only once. Among all 420,000 compounds or so, about 50,000 (12%) were called active. The shares of active, inactive and inconclusive entries below differ from those in the screen. Calls come from the whole dose curve; as a rule, active = well fitted inhibition curve with a large enough effect; inconclusive = small, poorly fitted or top-dose-only effect; inactive = flat fitted curve, though single readings scatter. Potencies of inconclusive entries are left out as doubtful fits.

experiment: qHTS for Inhibitors of human tyrosyl-DNA phosphodiesterase 1 (TDP1): qHTS in cells in presence of CPT; conditions: chicken DT40 Tdp1-/-;hTDP1 cells + 20 nM CPT, ATP luminescence, 48 h; activity change, negative = growth inhibition: at 46.2 µM (top of the series) unless noted; note: nearly all actives have a fitted effect of over 55% in size
Method in brief: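 Chicken DT40 Tdp1-/- cells complemented with human TDP1, 400 cells/well, exposed to compounds plus 20 nM camptothecin for at least 48 h at 37 C; viability read as ATP content by CellTiter-Glo luminescence.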
% is set by controls: 0 for no effect and ±100 for the full control effect; potency is the fitted concentration of half-maximal effect; tags give direction and shape of the fitted curve.

| Compound | Potency | activity change, negative = growth inhibition |
| --- | --- | --- |
| COc1ccc(CNC(=O)Nc2nc(C(N)CCc3ccccc3)cs2)cc1 (centres undefined) | inconclusive [inhibitor, single point] | – |
| COc1ccc(Cn2c(=O)c3oc4ccccc4c3n(Cc3cccc(C(F)(F)F)c3)c2=O)cc1 | inconclusive [inhibitor, full curve] | – |
| Clc1ccc2nc(N3CCNCC3)nc(-c3ccccc3)c2c1 | active: 18.4 µM | – |
| Cc1nn(-c2ccccc2)c2c1N(CC(=O)N1CCN(c3cccc(Cl)c3)CC1)C(=O)CS2 | inconclusive [inhibitor, single point] | – |
| O=C(c1ccc2c(=O)n(CCc3ccccc3)c(=O)[nH]c2c1)N1CCN(c2ccc(F)cc2)CC1 | active: 14.6 µM and active: 11.6 µM | – |
| N#Cc1c(N)nc(N2CCCC2)c(C#N)c1-c1ccc(Cl)cc1 | inconclusive [inhibitor, partial curve] | – |
| CCn1c(-c2ccccc2F)nc2cc(NC(C)=O)cc(C(=O)N(C)Cc3ccc4nccnc4c3)c21 | inconclusive [inhibitor, single point] | – |
| Cc1ccc(S(=O)(=O)NCc2ccccc2)cc1C(=O)N1CCN(S(=O)(=O)c2ccccc2F)CC1 | active: 11.6 µM | – |
| Cc1ccc(S(=O)(=O)NCCC(=O)NCC(c2cccs2)N(C)C)cc1C (centres undefined) | – | inactive: -5.38% |
| COc1cc(-c2nc3c(c(C)nn3-c3ccccc3)c3cc(OC)c(OC)cc23)ccc1O | inconclusive [inhibitor, single point] | – |
| CC(C)(C)Nc1nc2ccc([N+](=O)[O-])cc2o1 | – | inactive: -4.35% |
| CCCCCC(=O)Nc1cccc(C2=NOC3(C2)C[C@H](C(N)=O)N(C(=O)c2ccccc2)C3)c1 (some centres undefined) | inconclusive [inhibitor, single point] | – |
| COc1ccc(CCC(=O)NC(C)c2ccccc2)cc1OC (centres undefined) | – | inactive: -4.77% |
| COC(=O)c1c(OCc2ccc(F)cc2)cc(=O)n2c1CCN(Cc1ccc3cccnc3c1)CC2 | – | inactive: 8.77% [at 9.04 µM] |
| C(=Cc1c[nH]c2ccccc12)c1nccc2ccccc12 | inconclusive [inhibitor, partial curve] | – |
| COc1cccc(Cn2c(=O)c(-c3cn(C)c4ccccc34)nc3cnc(OC)nc32)c1 | – | inactive: 0.062% |
| COC(=O)[C@@]12C[C@@H](CC(=O)NCc3ccc(C)o3)C(=O)N(Cc3ccco3)C1=CCC(C)(C)C2 | inconclusive [inhibitor, single point] | – |
| Cc1ccccc1C(=O)N1CCC(C(=O)Nc2ccc(S(=O)(=O)N3CCCC3)cc2)CC1 | inconclusive [inhibitor, single point] | – |
| CN(CCOc1ccccc1)CC(=O)Nc1ccc(S(=O)(=O)N2CCCC2)cc1 | inconclusive [inhibitor, single point] | – |
| Cc1cc(Nc2cccc([N+](=O)[O-])c2)c2ccccc2n1 | inconclusive [inhibitor, single point] | – |
| Cc1ccccc1-c1nc(NC2CCNCC2)c2ccccc2n1 | active: 13 µM | – |
| Cc1ccc(NC(=O)CN(C)C(=O)c2ccccc2Sc2ccccc2C#N)cc1 | – | inconclusive: -31.6% [inhibitor] |
| COc1ccc(C(=O)Nc2nc3c(s2)CCCC3)cc1Cl | inconclusive [inhibitor, single point] | – |

| Compound | Potency | activity change, negative = growth inhibition |
| --- | --- | --- |
| O=C(NC(=S)N1CCCCC1)c1cccnc1 | – | inactive: -2.76% |
| CCOc1cccc(NC(=O)CSc2ncc(-c3ccccc3)[nH]2)c1 | inconclusive [inhibitor, single point] | – |
| CCCn1cc(S(=O)(=O)c2ccc(CC)cc2)c(=O)c2cc(F)c(N(CC)CC)cc21 | active: 8.2 µM | – |
| CN(Cc1ccccc1)CC(O)COc1ccc(CNCc2ccc(Cl)s2)cc1 (centres undefined) | inconclusive [inhibitor, single point] | – |
| COc1ccc(CN2CCNC(=O)C2CC(=O)N(C)Cc2nccs2)c(OC)c1 (centres undefined) | inconclusive [inhibitor, single point] | – |
| O=C(c1ccc2c(c1)OCO2)c1ccc[nH]1 | – | inactive: -21.8% |
| CC(=O)c1ccc(N2CCN(C(=O)CCCCn3c(=O)[nH]c4ccccc4c3=O)CC2)cc1 | active: 13 µM | – |
| CCc1cc(=O)oc2cc(C)cc(OCC(=O)N3CCC(C(=O)NC(C)C)(c4ccccc4)CC3)c12 | active: 23.1 µM | – |
| N#C/C(=C/c1cccc(C(F)(F)F)c1)c1nc(CCN2C(=O)c3ccccc3C2=O)cs1 | inconclusive [inhibitor, single point] | – |
| Cc1cc(C)cc(NC(=O)CCCn2c3ccccc3c(=O)c3ccccc32)c1 | inconclusive [inhibitor, single point] | – |
| CCN(CC)CCCNC(=O)c1cc2c(=O)[nH]c3ccc(C)cc3c2s1 | inconclusive [inhibitor, single point] | – |
| Cc1cc(NC(=O)CSc2nc(=O)cc(N)n2-c2ccc(Cl)cc2)no1 | – | inactive: -5.05% |
| COc1ccc(N(Cc2cc3ccc(C)cc3[nH]c2=O)C(=O)c2ccco2)cc1 | active: 23.1 µM | – |
| CC(=O)Nc1cc2c(cc1[N+](=O)[O-])-c1ccccc1C2O (centres undefined) | inconclusive [inhibitor, single point] | – |
| CCOc1ccc(CCNC(=O)c2ccc(Cl)c(S(=O)(=O)N3CCOCC3)c2)cc1OCC | active: 20.6 µM | – |
| CC(C)Oc1ccc(S(=O)(=O)N2CCOCC2)cc1NC(=O)C1COc2ccccc2O1 (centres undefined) | active: 20.6 µM | – |
| Cc1cccc(-n2ncc3c(N4CCC(C)CC4)ncnc32)c1 | inconclusive [inhibitor, single point] | – |
| COc1ccc(-n2c(C)cc(C(=O)COC(=O)Cn3cnc4ccccc43)c2C)cc1 | active: 15.8 µM | – |
| Cc1[nH]c2ccccc2c1SCC(=O)N1CCC(C)CC1 | inconclusive [inhibitor, single point] | – |
| COc1ccc(Cl)c(Cn2c(NCc3ccccn3)nc3c2c(=O)n(C)c(=O)n3C)c1 | inconclusive [inhibitor, single point] | – |
| COc1ccc(CNC(=O)c2sc(=O)n(Cc3cc(C(C)=O)ccc3OC)c2C)cc1 | active: 23.1 µM | – |
| COc1cc(OC)c(NC(=O)C(=O)CC(=O)c2ccc(C)cc2C)cc1Cl | active: 4.61 µM | – |
| Cc1ccc(NC(=O)CCC(=O)N2Cc3ccccc3Oc3ncccc32)cc1F | – | inactive: -11.7% |

| Compound | Potency | activity change, negative = growth inhibition |
| --- | --- | --- |
| CC(=O)NC(=O)c1ccc(-c2ccc(Cl)cc2)o1 | – | inactive: -12.3% |
| Fc1cccc(Cl)c1Cn1c(-c2cccs2)nc2ccccc21 | inconclusive [inhibitor, single point] | – |
| COc1ccc(C(=O)NCC(C)(c2ccccc2)c2ccccc2)cc1S(=O)(=O)N1CCOCC1 | inconclusive [inhibitor, single point] | – |
| C=C(C)CN1CCN(c2c(CCC#N)c(C)c(C#N)c3nc4ccccc4n23)CC1 | inconclusive [inhibitor, single point] | – |
| Cc1cc(C)cc(NC(=S)N2CCC(C(=O)c3ccc(F)cc3)CC2)c1 | – | inactive: -7% |
| COc1cccc(C(=O)NC(c2ccccc2)C2CCCC2)c1 (centres undefined) | inconclusive [inhibitor, single point] | – |
| COc1ccccc1OCC(=O)NCC1CCCN(C(=O)c2ccccc2SC)C1 (centres undefined) | inconclusive [inhibitor, single point] | – |
| COc1ccc(OC)c(CNC(=O)c2nn(C)c3c2CSc2ccccc2-3)c1 | active: 20.6 µM | – |
| Cc1nc(CSc2ccc(Cl)cc2)cc(N2CC(C)OC(C)C2)n1 (centres undefined) | inconclusive [inhibitor, single point] | – |
| O=C(NCC(c1ccc2c(c1)OCO2)N1CCOCC1)C(=O)Nc1cccc(Cl)c1 (centres undefined) | inconclusive [inhibitor, single point] | – |
| Cc1cccc(OCc2nnc(SCC(=O)NCc3ccc4c(c3)OCO4)o2)c1 | – | inactive: -1.11% |
| Cc1cccc2sc(NNC(=O)c3ccc(S(=O)(=O)N4CCCC(C)C4)cc3)nc12 (centres undefined) | active: 4.11 µM | – |
| O=C(O)c1c(CNCc2cccc(F)c2)c2ccccc2n1Cc1ccccc1 | inconclusive [inhibitor, single point] | – |
| CCOc1ccc(C(=O)Nc2cccc(C)n2)cc1 | inconclusive [inhibitor, single point] | – |
| Cc1cc(-c2ccc(C)c(S(=O)(=O)NCC3CCN(Cc4ccc(F)cc4)CC3)c2)on1 | active: 18.4 µM | – |
| Cc1ccc(-c2nn(-c3cccc(F)c3)cc2CN(Cc2nccn2C)C(C)C)o1 | inconclusive [inhibitor, single point] | – |
| O=C(c1cccc(OC2CCN(Cc3ccc(F)cc3)CC2)c1)N1CCCC1 | inconclusive [inhibitor, single point] | – |
| O=C(CN1CCN(Cc2ccccc2)CC1)N/N=C/C=C/c1ccccc1[N+](=O)[O-] | – | inactive: -19% |
| Cc1onc(-c2ccccc2Cl)c1C(=O)Nc1ccc(N2CCOCC2)cc1 | inconclusive [inhibitor, single point] | – |
| N#Cc1cc2c(nc1SCc1ccc(Cl)nc1)CCCCC2 | – | inactive: -29.6% |
| COc1ccc(CCNC(=S)N2CCN(S(=O)(=O)c3ccccc3)CC2)cc1 | inconclusive [inhibitor, single point] | – |
| CCOC(=O)[C@]12CCC=C1N(Cc1ccco1)C(=O)[C@H](CC(=O)NCc1cccc3ccccc13)C2 | – | inactive: -15.7% |
| C[C@@]12CCC=C[C@H]1[C@H](c1ccc(F)c(/C=C/c3ccccc3)c1)N(Cc1ccccc1)C2=O | inconclusive [inhibitor, single point] | – |
